Experimental data taken from PMC9100884, “Semi-Synthesis of N-Aryl Amide Analogs of Piperine from Piper nigrum and Evaluation of Their Antitrypanosomal, Antimalarial, and Anti-SARS-CoV-2 Main Protease Activities” (Molecules, 2022).

Target: SARS-CoV-2 3C-like main protease (3CLPro) (Severe acute respiratory syndrome coronavirus 2, UniProt P0DTD1)
Test: SARS-CoV-2 3CLPro activity assay with fluorogenic substrate
Format: biochemical
Details: for Relative Protease Activity at 100 μM (%RFU/s ± S.D.): compound at 100 μM, relative to initial rate without inhibitor, 0.2 μM 3CLPro; for inhibition at 100 µM: read-out: inhibition toward 3CLPro

| SMILES | Relative Protease Activity at 100 μM (%RFU/s ± S.D.) | IC50 | inhibition at 100 µM |
| --- | --- | --- | --- |
| O=C(O)/C=C/C=C/c1ccc2c(c1)OCO2 [Piperic acid (2), Piperic acid] | 46.9 ± 1.4 %RFU/s | – | – |
| O=C(/C=C/C=C/c1ccc2c(c1)OCO2)N1CCCCC1 [Piperine (1), Piperine] | 31.0 ± 2.8 %RFU/s | 178.4 ± 1.2 µM | ~70% |
| O=C(/C=C/C=C/c1ccc2c(c1)OCO2)Nc1ccccc1 [Compound 3, (2E,4E)-5-(benzo[d][1,3]dioxol-5-yl)-N-phenylpenta-2,4-dienamide] | 55.1 ± 1.1 %RFU/s | – | – |
| COc1ccc(NC(=O)/C=C/C=C/c2ccc3c(c2)OCO3)c(OC)c1 [Compound 4, (2E,4E)-5-(benzo[d][1,3]dioxol-5-yl)-N-(2,4-dimethoxyphenyl)penta-2,4-dienamide] | 69.0 ± 6.1 %RFU/s | – | – |
| COc1ccc(OC)c(NC(=O)/C=C/C=C/c2ccc3c(c2)OCO3)c1 [Compound 5, (2E,4E)-5-(benzo[d][1,3]dioxol-5-yl)-N-(2,5-dimethoxyphenyl)penta-2,4-dienamide] | 31.8 ± 5.7 %RFU/s | 107 ± 1.2 µM | ~70% |
